Measured values from PubChem BioAssay (NCI).
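All cell lines were grown in 96-well plates and treated with compound for 48 hours. The concentration for 50% growth inhibition is given as GI50.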 Certain results were filed several times, with different values. This list holds those alone. There may be further records. For some of these results: Values given together are repeats in other runs, samples, wells, individuals or studies. A tag in brackets gives the origin of a value. A, B and so on number the origins entry by entry.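 TGI is the concentration that stops growth completely.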 For some of these results: Records of one sample usually come from different ranges of test concentrations, which the source does not state; a value can be the end of its range.

Tests used:
Assay in all cases: NCI-60 cell line screen, 48 h
[1] = test system: SF-539 CNS
[2] = test system: BT-549 breast
[3] = test system: RPMI-8226 leukemia
[4] = test system: OVCAR-3 ovarian
[5] = test system: HOP-62 NSCLC
[6] = test system: K-562 leukemia
[7] = test system: MALME-3M melanoma
[8] = test system: SK-MEL-28 melanoma
[9] = test system: NCI-H23 lung
[10] = test system: IGROV1 ovarian
[11] = test system: HCT-116 colon
[12] = test system: SW-620 colon
[13] = test system: SF-268 CNS
[14] = test system: A549 NSCLC
[15] = test system: SNB-75 CNS
[16] = test system: OVCAR-8 ovarian
[17] = test system: CAKI-1 renal
[18] = test system: SF-295 CNS
[19] = test system: EKVX NSCLC
[20] = test system: NCI-H226 lung
[21] = test system: HT29 colon
[22] = test system: MCF7 breast
[23] = test system: SN12C renal
[24] = test system: OVCAR-5 ovarian
[25] = test system: CCRF-CEM leukemia
[26] = test system: A498 renal
[27] = test system: SK-OV-3 ovarian
[28] = test system: SNB-19 CNS
[29] = test system: LOX IMVI melanoma
[30] = test system: MOLT-4 leukemia
[31] = test system: KM12 colon
[32] = test system: SK-MEL-5 melanoma
[33] = test system: COLO 205 colon
[34] = test system: SK-MEL-2 melanoma
[35] = test system: UACC-257 melanoma
[36] = test system: U251 CNS
[37] = test system: UACC-62 melanoma

Nc1nc(N)c2nc(CNc3ccc(C(=O)NC(CCCCNC(=O)c4ccccc4C(=O)O)C(=O)O)cc3)cnc2n1 (stereo not drawn)
TGI [1]: 777 nM and > 100 µM

CC(=O)Oc1ccc(C(c2ccc(OC(C)=O)cc2)c2ccccn2)cc1
TGI [2]: 349 nM [sample A] and 6.58 µM [sample B]

CCCCCC(O)C1C(=O)OC(C)C(O)/C=C/C=C/C=C/C=C/C=C(\C)C(O)C(O)C(O)CC(O)CC(O)CC(O)CC(O)CC1O (stereo not drawn)
GI50 [3]: > 100 µM [sample A, 1 test] and 2.11 µM [sample B, mean of 2 tests]
TGI [3]: > 100 µM [sample A, 1 test] and 6.83 µM [sample B, mean of 2 tests]
GI50 [4]: > 100 µM [sample A, 1 test] and 1.73 µM [sample B, mean of 2 tests]
TGI [4]: > 100 µM [sample A, 1 test] and 3.3 µM [sample B, mean of 2 tests]
GI50 [5]: > 100 µM [sample A, 1 test] and 1.73 µM [sample B, 1 test]
TGI [5]: > 100 µM [sample A, 1 test] and 3.31 µM [sample B, 1 test]
GI50 [6]: > 100 µM [sample A, 1 test] and 1.43 µM [sample B, 1 test]
TGI [6]: > 100 µM [sample A, 1 test] and 3.26 µM [sample B, 1 test]
GI50 [7]: > 100 µM [sample A, 1 test] and 1.56 µM [sample B, 1 test]
TGI [7]: > 100 µM [sample A, 1 test] and 3.05 µM [sample B, 1 test]
GI50 [8]: > 100 µM [sample A, 1 test] and 1.75 µM [sample B, mean of 2 tests]
TGI [8]: > 100 µM [sample A, 1 test] and 3.27 µM [sample B, mean of 2 tests]
GI50 [9]: > 100 µM [sample A, 1 test] and 1.74 µM [sample B, mean of 2 tests]
TGI [9]: > 100 µM [sample A, 1 test] and 3.26 µM [sample B, mean of 2 tests]
GI50 [10]: > 100 µM [sample A, 1 test] and 2.11 µM [sample B, mean of 2 tests]
TGI [10]: > 100 µM [sample A, 1 test] and 4.56 µM [sample B, mean of 2 tests]
GI50 [11]: > 100 µM [sample A, 1 test] and 992 nM [sample B, mean of 2 tests]
TGI [11]: > 100 µM [sample A, 1 test] and 2.62 µM [sample B, mean of 2 tests]
GI50 [12]: > 100 µM [sample A, 1 test] and 1.52 µM [sample B, mean of 2 tests]
TGI [12]: > 100 µM [sample A, 1 test] and 3.45 µM [sample B, mean of 2 tests]
GI50 [13]: > 100 µM [sample A, 1 test] and 1.64 µM [sample B, mean of 2 tests]
TGI [13]: > 100 µM [sample A, 1 test] and 3.65 µM [sample B, mean of 2 tests]
GI50 [14]: > 100 µM [sample A, 1 test] and 1.93 µM [sample B, mean of 2 tests]
TGI [14]: > 100 µM [sample A, 1 test] and 3.5 µM [sample B, mean of 2 tests]
GI50 [15]: > 100 µM [sample A, 1 test] and 1.8 µM [sample B, mean of 2 tests]
TGI [15]: > 100 µM [sample A, 1 test] and 3.82 µM [sample B, mean of 2 tests]
GI50 [16]: > 100 µM [sample A, 1 test] and 1.52 µM [sample B, mean of 2 tests]
TGI [16]: > 100 µM [sample A, 1 test] and 3.24 µM [sample B, mean of 2 tests]
GI50 [17]: > 100 µM [sample A, 1 test] and 1.2 µM [sample B, mean of 2 tests]
TGI [17]: > 100 µM [sample A, 1 test] and 2.65 µM [sample B, mean of 2 tests]
GI50 [1]: > 100 µM [sample A, 1 test] and 1.74 µM [sample B, mean of 2 tests]
TGI [1]: > 100 µM [sample A, 1 test] and 3.27 µM [sample B, mean of 2 tests]
GI50 [18]: > 100 µM [sample A, 1 test] and 1.5 µM [sample B, mean of 2 tests]
TGI [18]: > 100 µM [sample A, 1 test] and 2.86 µM [sample B, mean of 2 tests]
GI50 [19]: > 100 µM [sample A, 1 test] and 1.89 µM [sample B, 1 test]
TGI [19]: > 100 µM [sample A, 1 test] and 3.48 µM [sample B, 1 test]
GI50 [20]: > 100 µM [sample A, 1 test] and 1.63 µM [sample B, 1 test]
TGI [20]: > 100 µM [sample A, 1 test] and 3.18 µM [sample B, 1 test]
GI50 [21]: > 100 µM [sample A, 1 test] and 1.39 µM [sample B, mean of 2 tests]
TGI [21]: > 100 µM [sample A, 1 test] and 2.82 µM [sample B, mean of 2 tests]
GI50 [22]: > 100 µM [sample A, 1 test] and 1.47 µM [sample B, mean of 2 tests]
TGI [22]: > 100 µM [sample A, 1 test] and 2.9 µM [sample B, mean of 2 tests]
GI50 [23]: > 100 µM [sample A, 1 test] and 1.71 µM [sample B, mean of 2 tests]
TGI [23]: > 100 µM [sample A, 1 test] and 3.24 µM [sample B, mean of 2 tests]
GI50 [24]: > 100 µM [sample A, 1 test] and 2.43 µM [sample B, mean of 2 tests]
TGI [24]: > 100 µM [sample A, 1 test] and 5.74 µM [sample B, mean of 2 tests]
GI50 [25]: > 100 µM [sample A, 1 test] and 2.66 µM [sample B, 1 test]
TGI [25]: > 100 µM [sample A, 1 test] and 8.93 µM [sample B, 1 test]
GI50 [26]: > 100 µM [sample A, 1 test] and 1.58 µM [sample B, 1 test]
TGI [26]: > 100 µM [sample A, 1 test] and 2.96 µM [sample B, 1 test]
GI50 [27]: > 100 µM [sample A, 1 test] and 1.95 µM [sample B, mean of 2 tests]
TGI [27]: > 100 µM [sample A, 1 test] and 3.67 µM [sample B, mean of 2 tests]
GI50 [28]: > 100 µM [sample A, 1 test] and 1.59 µM [sample B, mean of 2 tests]
TGI [28]: > 100 µM [sample A, 1 test] and 3.09 µM [sample B, mean of 2 tests]
GI50 [29]: > 100 µM [sample A, 1 test] and 1.25 µM [sample B, mean of 2 tests]
TGI [29]: > 100 µM [sample A, 1 test] and 2.77 µM [sample B, mean of 2 tests]
GI50 [30]: > 100 µM [sample A, 1 test] and 2.31 µM [sample B, mean of 2 tests]
TGI [30]: > 100 µM [sample A, 1 test] and 5.29 µM [sample B, mean of 2 tests]
TGI [31]: 40.7 µM [sample A, 1 test] and 3.39 µM [sample B, mean of 2 tests]
GI50 [32]: > 100 µM [sample A, 1 test] and 2.11 µM [sample B, mean of 2 tests]
TGI [32]: > 100 µM [sample A, 1 test] and 4.17 µM [sample B, mean of 2 tests]
GI50 [33]: > 100 µM [sample A, 1 test] and 1.46 µM [sample B, mean of 2 tests]
TGI [33]: > 100 µM [sample A, 1 test] and 2.97 µM [sample B, mean of 2 tests]
GI50 [34]: > 100 µM [sample A, 1 test] and 1.61 µM [sample B, mean of 2 tests]
TGI [34]: > 100 µM [sample A, 1 test] and 3.03 µM [sample B, mean of 2 tests]
GI50 [35]: > 100 µM [sample A, 1 test] and 1.73 µM [sample B, mean of 2 tests]
TGI [35]: > 100 µM [sample A, 1 test] and 3.33 µM [sample B, mean of 2 tests]
GI50 [36]: > 100 µM [sample A, 1 test] and 1.86 µM [sample B, mean of 2 tests]
TGI [36]: > 100 µM [sample A, 1 test] and 3.34 µM [sample B, mean of 2 tests]
GI50 [37]: > 100 µM [sample A, 1 test] and 1.57 µM [sample B, mean of 2 tests]
TGI [37]: > 100 µM [sample A, 1 test] and 3.02 µM [sample B, mean of 2 tests]
